The values below come from a collection of fitness landscapes (doi:10.1016/j.celrep.2020.107928).

In all, about 81,000 sequences were measured (“one-hybrid fitness for binding NBS DNA”: median about -0.1, highest 2% from about 0.36 on). Some of the results follow.

B1: Caulobacter ParB omega fusion; a variant is named by its letters at X, in order, B8GW30 (parent)
chain: MESVVVGEPGMSEGRRGLGRGLSALLGEVDAAPAQAPGEQLGGSREAPIEILQRNPDQPRRTFREEDLEDLSNSIREKGVLQPILVRPSPDTAGEYQIVAGERAWRAAQRAGLKTVPIMVRELDDLAVLEIGIIENVQRADLNVLEEALSYKVLMEKFERTQENIAQTIGKSXSHVANXMRLLXLPDEVQSYLVSGELTAXHARAIAAAADPVALAKQIIEGGLSVRETEALARKAPNLSAGKSKGGRPPRVKDTDTQALESDLSSVLGLDVSIDHRGSTGTLTITYATLEQLDDLCNRLTRGI

The variants in this assay derive from B1. In words: one-hybrid fitness for binding NBS DNA (the Noc-binding site; scaled: cognate 1, non-cognate 0); higher = stronger binding. The note with it: with NBS DNA site. In a few lines: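 Pre- and post-selection plasmids were Illumina-sequenced, three replicate libraries were pooled, and any variant with under 10 reads was removed. The libraries were Caulobacter ParB with four specificity codons randomised, selected in E. coli USO through a HIS3 reporter whose site is 19 bp from the promoter. Cells grew 48 hours at 37°C on M9 without histidine, with 0.1 mM IPTG and 5 mM 3-AT. Fitness is the log change in variant-to-wild-type read ratio, rescaled against cognate and non-cognate.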
As for PELL, the “one-hybrid fitness for binding NBS DNA” value was no more than 0.2.

NPYC: the “one-hybrid fitness for binding NBS DNA” value was no more than 0.2.

On to RSIR, for which the “one-hybrid fitness for binding NBS DNA” value was found to be 0.207.

On to YTVT, for which the “one-hybrid fitness for binding NBS DNA” value was no more than 0.2.

For the variant RLSH, the “one-hybrid fitness for binding NBS DNA” value was no more than 0.2.

For RDGT, the “one-hybrid fitness for binding NBS DNA” value is no more than 0.2.

For QYAS, the “one-hybrid fitness for binding NBS DNA” value stood at 0.327.

On to QRRD, for which the “one-hybrid fitness for binding NBS DNA” value was 0.356.

For AHVF, the “one-hybrid fitness for binding NBS DNA” value was no more than 0.2.

With MRRA, the “one-hybrid fitness for binding NBS DNA” value was no more than 0.2.

Consider TGPW, for which the “one-hybrid fitness for binding NBS DNA” value is no more than 0.2.

Regarding LTRA, the “one-hybrid fitness for binding NBS DNA” value is no more than 0.2.

Consider FLEG, for which the “one-hybrid fitness for binding NBS DNA” value is no more than 0.2.

Regarding PKHG, the “one-hybrid fitness for binding NBS DNA” value was no more than 0.2.

With IALM, the “one-hybrid fitness for binding NBS DNA” value is no more than 0.2.

For TRAT, the “one-hybrid fitness for binding NBS DNA” value came to 0.315.

For the variant VYYT, the “one-hybrid fitness for binding NBS DNA” value is no more than 0.2.

For the variant WPAS, the “one-hybrid fitness for binding NBS DNA” value was no more than 0.2.

With HWAC, the “one-hybrid fitness for binding NBS DNA” value is no more than 0.2.

ALQT: the “one-hybrid fitness for binding NBS DNA” value is no more than 0.2.

Consider YALS, for which the “one-hybrid fitness for binding NBS DNA” value was no more than 0.2.

As to HYQT, the “one-hybrid fitness for binding NBS DNA” value is no more than 0.2.

Turning to LGHF, the “one-hybrid fitness for binding NBS DNA” value was no more than 0.2.

As to TGNC, the “one-hybrid fitness for binding NBS DNA” value is no more than 0.2.

Take YPQC: the “one-hybrid fitness for binding NBS DNA” value is no more than 0.2.

Take SQGR: the “one-hybrid fitness for binding NBS DNA” value is no more than 0.2.

As for DLQT, the “one-hybrid fitness for binding NBS DNA” value is no more than 0.2.

Regarding DHAL, the “one-hybrid fitness for binding NBS DNA” value was no more than 0.2.

Regarding ELWS, the “one-hybrid fitness for binding NBS DNA” value is no more than 0.2.

Turning to MVEM, the “one-hybrid fitness for binding NBS DNA” value is no more than 0.2.

Regarding SQII, the “one-hybrid fitness for binding NBS DNA” value is no more than 0.2.

Consider VYQT, for which the “one-hybrid fitness for binding NBS DNA” value was no more than 0.2.

For the variant MTVQ, the “one-hybrid fitness for binding NBS DNA” value is no more than 0.2.

For the variant AMVG, the “one-hybrid fitness for binding NBS DNA” value was no more than 0.2.

On to RQLE, for which the “one-hybrid fitness for binding NBS DNA” value was no more than 0.2.

Turning to SKTS, the “one-hybrid fitness for binding NBS DNA” value was no more than 0.2.

Turning to HPPS, the “one-hybrid fitness for binding NBS DNA” value is no more than 0.2.

For the variant HEPC, the “one-hybrid fitness for binding NBS DNA” value was no more than 0.2.

With MAKP, the “one-hybrid fitness for binding NBS DNA” value is no more than 0.2.

As for VPQG, the “one-hybrid fitness for binding NBS DNA” value was no more than 0.2.

Consider SLLL, for which the “one-hybrid fitness for binding NBS DNA” value is no more than 0.2.

Consider QLQG, for which the “one-hybrid fitness for binding NBS DNA” value is no more than 0.2.

On to HHKS, for which the “one-hybrid fitness for binding NBS DNA” value is no more than 0.2.

Regarding TRVP, the “one-hybrid fitness for binding NBS DNA” value is no more than 0.2.

Take LWQC: the “one-hybrid fitness for binding NBS DNA” value was no more than 0.2.

IFLG: the “one-hybrid fitness for binding NBS DNA” value is no more than 0.2.

In the case of LWLC, the “one-hybrid fitness for binding NBS DNA” value was no more than 0.2.

Take RGVF: the “one-hybrid fitness for binding NBS DNA” value is no more than 0.2.

On to FGDF, for which the “one-hybrid fitness for binding NBS DNA” value is no more than 0.2.

With MRHS, the “one-hybrid fitness for binding NBS DNA” value was no more than 0.2.

For the variant YRAS, the “one-hybrid fitness for binding NBS DNA” value was no more than 0.2.

Turning to NRRC, the “one-hybrid fitness for binding NBS DNA” value is no more than 0.2.

For HMFR, the “one-hybrid fitness for binding NBS DNA” value is no more than 0.2.

With PFPP, the “one-hybrid fitness for binding NBS DNA” value is no more than 0.2.

On to INQG, for which the “one-hybrid fitness for binding NBS DNA” value was no more than 0.2.

On to NHEV, for which the “one-hybrid fitness for binding NBS DNA” value was no more than 0.2.

For the variant TEGL, the “one-hybrid fitness for binding NBS DNA” value is no more than 0.2.

Regarding IKTI, the “one-hybrid fitness for binding NBS DNA” value was no more than 0.2.

Regarding STCS, the “one-hybrid fitness for binding NBS DNA” value is no more than 0.2.

In the case of TGGS, the “one-hybrid fitness for binding NBS DNA” value is no more than 0.2.

On to KIVR, for which the “one-hybrid fitness for binding NBS DNA” value is no more than 0.2.

DHFR: the “one-hybrid fitness for binding NBS DNA” value was no more than 0.2.

On to SWTA, for which the “one-hybrid fitness for binding NBS DNA” value is no more than 0.2.

In the case of DIKS, the “one-hybrid fitness for binding NBS DNA” value is no more than 0.2.

Take CCNA: the “one-hybrid fitness for binding NBS DNA” value was no more than 0.2.

For STAP, the “one-hybrid fitness for binding NBS DNA” value is no more than 0.2.

For the variant EYPC, the “one-hybrid fitness for binding NBS DNA” value was no more than 0.2.

As for TYPP, the “one-hybrid fitness for binding NBS DNA” value is no more than 0.2.

As for IIAG, the “one-hybrid fitness for binding NBS DNA” value was no more than 0.2.

In the case of TIMS, the “one-hybrid fitness for binding NBS DNA” value was no more than 0.2.

For ADCQ, the “one-hybrid fitness for binding NBS DNA” value is no more than 0.2.

Regarding RSRV, the “one-hybrid fitness for binding NBS DNA” value is no more than 0.2.

On to QCIY, for which the “one-hybrid fitness for binding NBS DNA” value is no more than 0.2.

For the variant GSKI, the “one-hybrid fitness for binding NBS DNA” value was no more than 0.2.

HMHD: the “one-hybrid fitness for binding NBS DNA” value is no more than 0.2.

HIID: the “one-hybrid fitness for binding NBS DNA” value was no more than 0.2.

Consider EGGI, for which the “one-hybrid fitness for binding NBS DNA” value was no more than 0.2.

As to CFMK, the “one-hybrid fitness for binding NBS DNA” value is no more than 0.2.

GNKA: the “one-hybrid fitness for binding NBS DNA” value was no more than 0.2.

In the case of MSFT, the “one-hybrid fitness for binding NBS DNA” value was no more than 0.2.

With VKCI, the “one-hybrid fitness for binding NBS DNA” value was no more than 0.2.

In the case of WANS, the “one-hybrid fitness for binding NBS DNA” value is no more than 0.2.

For HFEE, the “one-hybrid fitness for binding NBS DNA” value was no more than 0.2.

As for QTVF, the “one-hybrid fitness for binding NBS DNA” value is no more than 0.2.
